Tests used:
mouse ENTPD2 = molecular target: T1, mouse ENTPD2 (Mus musculus, UniProt O55026); assay: Antibody specificity: binding to mouse ENTPD2
T1 construct: residues 29-462 of mouse or rat ENTPD2 (the extracellular domain); mouse IgK signal peptide (N); His6; made in house; host or cells: FreeStyle 293-F cells, transient transfection
T1 sequence (O55026 29-462): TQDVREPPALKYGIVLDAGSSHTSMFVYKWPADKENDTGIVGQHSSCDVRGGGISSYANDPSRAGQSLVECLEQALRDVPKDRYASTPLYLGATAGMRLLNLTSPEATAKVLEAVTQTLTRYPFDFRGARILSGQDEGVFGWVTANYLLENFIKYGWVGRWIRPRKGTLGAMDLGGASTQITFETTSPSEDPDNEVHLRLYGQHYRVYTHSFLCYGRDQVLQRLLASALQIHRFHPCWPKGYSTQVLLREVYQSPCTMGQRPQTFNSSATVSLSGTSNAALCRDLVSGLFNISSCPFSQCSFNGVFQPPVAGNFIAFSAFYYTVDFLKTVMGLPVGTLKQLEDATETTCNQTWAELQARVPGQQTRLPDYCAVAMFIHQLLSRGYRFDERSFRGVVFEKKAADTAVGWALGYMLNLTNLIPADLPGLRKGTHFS
Text: Antibody specificity for mAbl-mAblO was confirmed. […] Antibodies mAb8, mAb9, and mAb10 show weak affinity to mouse ENTPD2. None of the selected antibodies bind to rat ENTPD2.

[1] = system: human ENTPD2 engineered B16LM3 clone B5; assay: Plasma and tumor cytokines 24 hr after treatment, B16LM3 clone B5 model; format: in vivo, C57BL/6 mice
Procedure: In order to understand immediate impact of ENTPD2 blockade from immune pathway engagement perspective, plasma and B16LM3 clone B5 tumors (mean tumor volume ˜170 mm^3) were collected from C57BL/6 mice 24 hr after treatment with anti-human ENTPD2 mAb1 or Isotype Control at 10 mg/kg.
Briefly, plasma was isolated via collection of blood into Microvette MV-H-300 Capillary Plasma Lithium Heparin Blood Collection tube (Sai Infusion technologies, Lake Villa, Ill.), that were spun down at 1000-2000×g for 10 min. Plasma samples were stored at −80° C. until use. Tumor samples were surgically excised and immediately frozen in liquid nitrogen. Tumor tissue was then homogenized in T-PER Tissue Protein Extraction Reagent (ThermoFisher, Waltham, Mass.) using the TissueLyser (Qiagen, Germany) instrument. Tumor lysate samples were spun down at 11,000 rpm for 15 min and supernatants were collected for protein concentration analysis using Pierce BCA Protein Assay Kit (ThermoFisher, Waltham, Mass.). 200μg of protein or 25 μl of undiluted plasma was used for cytokine analysis using the V-PLEX Mouse Cytokine 29-Plex Kit (MSD, Rockville, Md.) according to manufacturer's recommendations.

NIH/3T3 cells = assay: Cross reactivity: FACS binding to NIH/3T3 control cells; settings: 50 nM antibody
Procedure: FACS screening: Specific binding of candidate antibodies to endogenously expressed ENTPD2 was assessed by flow cytometry. Cells were rinsed thoroughly with 1×PBS and treated with Accutase (Millipore #SCR005) to lift from growth plates and resuspended at approximately 1×10^5 cells/90 μL in 1× FACS buffer (2% FBS+0.1% NaN3 in PBS). In a 96-well U-bottom plate, 10 μL of 10× antibody solution in FACS buffer was pre-seeded and 90 μL of cell suspension was added. Cell were incubated for 30 minutes at 4° C., washed 1× with cold PBS and resuspended in 100 μL of 1:500 secondary antibody 1× FACS buffer (Allophycocyanin conjugated F(ab′)2 goat anti-human IgG, Fcγ specific; Jackson Immunoresearch, Cat#109-136-098). After additional incubation for 15 min at 4° C., cells were washed twice with PBS and resuspended in 100 μL of 1×FACS buffer with 4 μg/mL propidium iodide (Life Technologies, Cat#P3566). Geometric mean fluorescence intensity was calculated on live single cells using FlowJo software.
Cross reactivity Human ENTPD1 (NP_001767) expressing NIH/3T3 cells were generated using a retroviral transduction approach. 72 hrs post transduction, engineered cells were stained with the anti-Human CD39/ENTPD1 APC-conjugated Antibody (R&D systems, Minneapolis, Minn.) and live cells that expressed human ENTPD1 were separated from the rest of the population via fluorescence activated cell sorting. Stable expression of ENTPD1 was periodically re-confirmed by FACS with the above described anti-Human CD39/ENTPD1 APC-conjugated Antibody (1:100).

[2] = 10 mg/kg, 24 hr after treatment, vs Isotype Control

B1: mAb1: humanized anti-human ENTPD2 human IgG1 from mAb17; heavy chain SEQ ID NO: 12, light chain SEQ ID NO: 23 (antibody)
heavy: EVQLVQSGAEVKKPGESLKISCKASGYTFTDYNMDWVRQMPGKGLEWMGDINPKYDISTYNQQFKGQVTISADKSIRTAYLQWSSLKASDTAMYYCARRGFFLYYGINYYYFDVWGQGTLVTVSSASTKGPSVFPLAPSSKSTSGGTAALGCLVKDYFPEPVTVSWNSGALTSGVHTFPAVLQSSGLYSLSSVVTVPSSSLGTQTYICNVNHKPSNTKVDKRV[here human IgG1 Fc without letters]
light: DIQLTQSPSSLSASVGDRVTITCSASSSVSYIHWFQQKPGKAPKLLIYSTSNLASGVPSRFSGSGSGTFFTLTISSLQPEDFATYFCHQWSSYPWTFGQGTKVEIKRTVAAPSVFIFPPSDEQLKSGTASVVCLLNNFYPREAKVQWKVDNALQSGNSQESVTEQDSKDSTYSLSSTLTLSKADYEKHKVYACEVTHQGLSSPVTKSFNRGEC
Mouse ENTPD2
  affinity / cross-reactivity to mouse ENTPD2: not mouse ENTPD2 cross-reactive
Mouse ENTPD2; Mouse ENTPD2
  BIACore KD: No binding
[1]; [2]
  IL-1β at the tumor site: trend suggesting a parallel reduction
  decrease of IL-1β in plasma: approximately 2 -fold
  increase in MCP1 at the tumor site: approximately 2 -fold
  plasma MCP1: significant decrease
[1]; syngeneic tumors
  intratumoral M1 macrophages: increase in intratumoral M1 macrophages
NIH/3T3 cells
  Apparent FACS binding at 50 nM: No binding

— patent publication US20220348651A1, “ENTPD2 ANTIBODIES, COMBINATION THERAPIES, AND METHODS OF USING THE ANTIBODIES AND COMBINATION THERAPIES” (Novartis AG, priority 2019, published 2022)
